# According to PubChem BioAssay AID1768 (National Center for Advancing Translational Sciences (NCATS), 2009):
# The whole screen tested about 270,000 compounds, of which about 620 (0.23%) were called active. Inconclusive results, whose numbers are uncertain, are shown with a selection of clear calls. Calls follow the shape of the dose curve; as a rule, active = well fitted inhibition curve with a large enough effect in the polarisation, with a control signal flat (not every such curve was filed as active); inconclusive = small, poorly fitted or top-dose-only effect, or effect the other way, or a change in a side signal; inactive = no such curve, though single readings can be large or run the other way; the % refers to the polarisation. Potencies beside an inconclusive call are fits to weak or partial responses and may not hold up. “Side channel” marks fits to a control or component signal instead of the main read-out.
# Biological target: Menin (Homo sapiens) (UniProt O00255)
# Experiment: qHTS Assay for Inhibitors Targeting the Menin-MLL Interaction in MLL Related Leukemias: Competition With Texas Red Labeled MLL-derived Mutant Peptide; as to FP activity change, negative = inhibition: % of control where 0% means no effect
# Conditions: fluorescence polarization; FP activity change, negative = inhibition: at 61.6 µM (top of the series)
# Potency is read from the fitted curve at half-maximal effect; tags tell the direction and shape of the fitted curve or compound fluorescence and quenching.
# Sequence of UniProt O00255 (O00255 whole entry, looked up): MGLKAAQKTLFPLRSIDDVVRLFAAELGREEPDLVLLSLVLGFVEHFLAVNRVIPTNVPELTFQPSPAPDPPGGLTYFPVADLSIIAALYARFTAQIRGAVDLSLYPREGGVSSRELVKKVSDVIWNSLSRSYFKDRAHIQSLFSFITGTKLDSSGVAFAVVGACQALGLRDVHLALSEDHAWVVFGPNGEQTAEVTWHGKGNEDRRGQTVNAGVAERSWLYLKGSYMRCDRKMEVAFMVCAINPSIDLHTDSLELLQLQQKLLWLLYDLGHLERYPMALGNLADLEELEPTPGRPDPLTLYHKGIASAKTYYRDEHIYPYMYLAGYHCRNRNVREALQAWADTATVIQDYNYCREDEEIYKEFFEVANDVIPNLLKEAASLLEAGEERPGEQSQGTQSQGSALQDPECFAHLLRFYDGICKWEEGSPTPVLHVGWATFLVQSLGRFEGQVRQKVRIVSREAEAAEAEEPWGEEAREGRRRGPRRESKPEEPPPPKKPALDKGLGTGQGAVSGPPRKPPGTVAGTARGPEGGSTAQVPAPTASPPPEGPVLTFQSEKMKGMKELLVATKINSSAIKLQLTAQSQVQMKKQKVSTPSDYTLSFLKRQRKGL
Structure (SMILES),Potency,"FP activity change, negative = inhibition"
Cc1ccc2nc(NC(=O)COC(=O)CSc3nc(C)cc(C)n3)sc2c1,"inconclusive: 31.6 µM [quencher, side channel, single point]",
Cc1cccc(NC(=O)CSc2cn[nH]n2)c1,"inconclusive: 0.316 µM [inhibitor, full curve]",
O=C(/C=C/c1ccccc1Cl)Nc1cccc(S(=O)(=O)NC2=NCCCCC2)c1,"inconclusive: 22.4 µM [quencher, side channel, partial curve]",
Cc1ccc(-c2cnc(NC(=O)c3cccc(Br)c3)s2)c(C)c1,"inconclusive: 39.8 µM [inhibitor, single point]",
Cc1ccc(NC(=O)CSC2=C(C#N)C(c3ccco3)C3=C(CCCC3=O)N2)cc1 (configuration not stated),"inconclusive: 31.6 µM [quencher, side channel, single point]",
Cc1cccc(-n2cc(CN3CCN(Cc4nccn4C)CC3)c(-c3cccc(F)c3)n2)c1,"inconclusive: 8.91 µM [inhibitor, partial curve]",
O=C(NC(Nc1ncc(S(=O)(=O)c2ccc([N+](=O)[O-])cc2)s1)(C(F)(F)F)C(F)(F)F)c1ccc(Cl)cc1,"inconclusive: 20 µM [quencher, side channel, partial curve]",
CC(=O)Nc1ccc(N=NC2C(=O)N(C(N)=S)N=C2C)cc1 (configuration not stated),"inconclusive: 28.2 µM [quencher, side channel, single point]",
O=C(Nc1ccc(Br)cc1F)c1sccc1-n1cccc1,"inconclusive: 39.8 µM [fluorescent, side channel, single point]",
CC(CCc1ccccc1)NC(=O)COC(=O)c1ccccc1Br (configuration not stated),inactive,
COc1cc(/C=N/NS(=O)(=O)c2ccc(C)cc2)ccc1OCc1cccc(C(=O)O)c1,"inconclusive: 12.6 µM [quencher, side channel, partial curve]",
COc1ccc(Cc2nnc(NC(=O)c3cc(OC)c(OC)c(OC)c3)s2)cc1,"inconclusive: 20 µM [quencher, side channel, single point]",
COc1ccc(CCCc2nnc(SCC(=O)Nc3nc(C)cs3)n2C)cc1C,"inconclusive: 22.4 µM [fluorescent, side channel, partial curve]",
CCCC(=O)OCC(=O)Nc1ccc(N=Nc2ccccc2)cc1,"inconclusive: 28.2 µM [quencher, side channel, single point]",
Cc1cccc(C)c1OCc1nnc(SCC(=O)Nc2nccs2)o1,"inconclusive: 8.91 µM [fluorescent, side channel, partial curve]",
CCN1CCN(Cc2c(O)ccc3c2O/C(=C\c2ccccc2)C3=O)CC1,"inconclusive: 39.8 µM [quencher, side channel, single point]",
O=C(CCCN1C(=O)S/C(=C/c2ccccc2)C1=S)Nc1ccc(C(=O)O)cc1,"inconclusive: 28.2 µM [quencher, side channel, single point]",
CC(=O)[C@@H]1[C@@H]2C(=O)N(C3CCCCC3)C(=O)[C@@H]2C2c3ccccc3C=CN21 (some centres not stated),"inconclusive: 7.94 µM [inhibitor, full curve, poor fit]",
COc1ccc(/C=N/c2c(-c3ccc(OC)cc3)nc3n2CCS3)cc1,"inconclusive: 17.8 µM [quencher, side channel, partial curve]",

Structure (SMILES),Potency,"FP activity change, negative = inhibition"
c1ccc(-c2nnc(OCc3cccnc3)c3ccccc23)cc1,"inconclusive: 17.8 µM [inhibitor, single point]",
C=CCNC(=O)c1onc(CSc2ccc(C(C)C)cc2)c1C(=O)O,"inconclusive: 22.4 µM [quencher, side channel, partial curve]",
Oc1ccc(-c2[nH]ncc2-c2ccc(Cl)cc2)c(O)c1,"inconclusive: 14.1 µM [quencher, side channel, partial curve]",
Fc1ccc2nc(Nc3nc4c(s3)CCCC4)sc2c1,"inconclusive: 14.1 µM [quencher, side channel, partial curve]",
COc1cccc(C(=O)/C=C/c2ccc(SC)cc2)c1,"inconclusive: 1.78 µM [fluorescent, side channel, full curve, poor fit]",
O=C1c2ccccc2S(=O)(=O)N1CC(O)Cn1c2ccccc2c2ccccc21 (configuration not stated),"inconclusive: 39.8 µM [inhibitor, single point]",
O=C(NCc1ccc2c(c1)OCO2)c1ccc(-n2cnnn2)cc1,"inconclusive: 8.91 µM [inhibitor, single point]",
CCCN1CCC(=O)N(C(CSc2ccc(OC)cc2)CC(C)C)CC1 (configuration not stated),"inconclusive: 3.55 µM [inhibitor, full curve, poor fit]",
O=C(Nc1ccc2c(c1)OCCO2)Nc1ccc2c(c1)OCO2,"inconclusive: 12.6 µM [quencher, side channel, partial curve]",
CCN(CC)S(=O)(=O)c1cccc(NC(=O)c2ccc(Sc3nncn3C)c([N+](=O)[O-])c2)c1,"inconclusive: 12.6 µM [quencher, side channel, partial curve]",
Cc1cc(F)ccc1OC1C=CC(c2ccc3c(c2)OCO3)OC1CO (configuration not stated),,inactive: -2.98% [at 11.7 µM]
N#Cc1c(N)nc2c(c1-c1ccncc1)CCCCC2,inactive,
O=C(NNc1ncnc2c1cnn2-c1cccc(Cl)c1)c1ccco1,"inconclusive: 35.5 µM [quencher, side channel, single point]",
Cc1ccc2c(C)c(C(=O)NCC(C)(C)N3CCOCC3)oc2c1C,"inconclusive: 8.91 µM [fluorescent, side channel, partial curve]",
COc1cccc(Nc2nc3ccccc3c(=O)[nH]2)c1,"inconclusive: 25.1 µM [quencher, side channel, single point]",
CCC(=O)Nc1nc(C)c(-c2csc(Nc3cccc(O)c3)n2)s1,"inconclusive: 15.8 µM [quencher, side channel, partial curve]",
Cc1cccc2sc(NC(=O)C3CCN(S(=O)(=O)c4cc([N+](=O)[O-])ccc4Cl)CC3)nc12,"inconclusive: 14.1 µM [quencher, partial curve]",
Cc1ccnc(Nc2nc(-c3ccc(O)cc3O)cs2)c1,"inconclusive: 11.2 µM [quencher, side channel, partial curve]",
CCOC(=O)c1c(NC(=O)CN2CCCCC2)sc2c1CCN(C(=O)OCC)C2,"inconclusive: 10 µM [fluorescent, side channel, full curve]",

Structure (SMILES),Potency,"FP activity change, negative = inhibition"
O=C(Nc1ccncc1)Nc1ccc(F)c(Cl)c1,"inconclusive: 15.8 µM [quencher, side channel, partial curve]",
COc1ccc([C@]23Cc4cc(C#N)ccc4C(O2)C2=C(CC4(CCCCC4)OC2=O)O3)cc1,"inconclusive: 3.55 µM [quencher, side channel, single point]",
Cc1ccc(C)n1-c1ccc(-c2nnc3n2CCCCC3)s1,inactive,
O=C(O)CCCN1C(=O)/C(=C/c2cn(-c3ccccc3)nc2-c2cccs2)SC1=S,"inconclusive: 14.1 µM [quencher, side channel, partial curve]",
Cc1ccsc1-c1nc(-c2ccccc2)c(-c2ccccc2)[nH]1,"inconclusive: 12.6 µM [quencher, side channel, partial curve]",
CCCCCCCCCCCCCC[N+](C)(C)C,inactive,
Cc1[nH]n(-c2ccccc2)c(=O)c1/C=N\NC(=O)C1COc2ccccc2O1 (configuration not stated),"inconclusive: 15.8 µM [quencher, side channel, partial curve]",
COCCN1C(=O)C(=O)/C(=C(/O)c2ccc(S(=O)(=O)N3CCCCC3)cc2)C1c1ccc(OC)c(OC)c1 (configuration not stated),inactive,
COc1ccc(C2=CC(c3sccc3C)n3nnnc3N2)cc1 (configuration not stated),"inconclusive: 25.1 µM [inhibitor, single point]",
CCCSS/C(CCO)=C(/C)N(C=O)Cc1cnc(C)nc1N,inactive,
CCCCCCCCCC(=O)NC(CN1CCOCC1)[C@H](O)c1ccccc1 (some centres not stated),"inconclusive: 25.1 µM [fluorescent, side channel, partial curve]",
Cc1nc(CSc2ccc(Br)cc2)cs1,"inconclusive: 39.8 µM [quencher, single point]",
Cc1cc(C(C)(C)C)oc1C(=O)N(CC(=O)NC1CCCC1)c1cccc(C(F)(F)F)c1,"inconclusive: 15.8 µM [inhibitor, partial curve]",
COC(=O)c1ccccc1NC(=O)C1CCC(=O)N1S(=O)(=O)c1ccc(C)cc1 (configuration not stated),"inconclusive: 39.8 µM [fluorescent, side channel, single point]",
CC(C)(C)C(=O)N1CCN(C(c2ccccc2)c2ccccc2)CC1,"inconclusive: 39.8 µM [quencher, single point]",
COc1ccc(-c2nc(CS(=O)(=O)CC(=O)NCc3cccc(OC)c3OC)c(C)o2)cc1,"inconclusive: 8.91 µM [fluorescent, side channel, full curve, poor fit]",
Nc1c(S(=O)(=O)O)cc(Nc2ccc(Cl)cc2)c2c1C(=O)c1ccccc1C2=O,"inconclusive: 10 µM [quencher, side channel, partial curve]",
CCCCC(C(=O)NC(C)(C)C)N(Cc1ccccc1)C(=O)c1snc(C(N)=O)c1N (configuration not stated),inactive,
Cc1ccc(NC(=O)c2cc(-c3cccc(O)c3)on2)cc1C,"inconclusive: 3.16 µM [quencher, side channel, partial curve]",
